# Results from PubChem BioAssay AID624296 (National Center for Advancing Translational Sciences (NCATS), 2012).
# In all, about 350,000 compounds went through this assay and about 9,900 (2.8%) were called active. Inconclusive means that the source gave no clear call. Such entries were picked first, then a sample of the others. Calls come from the whole dose curve; as a rule, active = well fitted activation curve with a large enough effect; inconclusive = small, poorly fitted or top-dose-only effect; inactive = no such curve, though single readings can be large or run the other way. No potency is given beside an inconclusive call; the fits are too rough.
# Test: A quantitative high throughput screen for small molecules that induce DNA re-replication in MCF 10a normal breast cells. For activity, positive = re-replication: % of control where 0% means no effect. Note: nearly all actives have a fitted effect of over 50% in size.
# Conditions: MCF 10A DNA re-replication, Hoechst nuclear intensity, 48 h; activity, positive = re-replication: at 46.1 µM (top of the series)
# Potency is the fitted concentration of half-maximal effect; tags give direction and shape of the fitted curve.
Compound,Potency,"activity, positive = re-replication"
Cc1ccc(Cn2nnc3c(=O)n(CC(=O)N4CCN(c5ccccc5)CC4)cnc32)cc1,"inconclusive [activator, single point]",–
NNC(=O)C(=O)Nc1ccc(O)cc1,"inconclusive [activator, partial curve, poor fit]",–
Cc1ccc(S(=O)(=O)N(CC(=O)Nc2ccccc2C(=O)O)c2cccc(Cl)c2C)cc1,active: 16.4 µM,–
CSCCC(NS(=O)(=O)c1ccc2c(c1)OCCO2)C(=O)N(C)Cc1ccc(F)cc1 (configuration not stated),"inconclusive [activator, partial curve, poor fit]",–
Cc1ccc(OCCC(=O)OCC(=O)NC2CCS(=O)(=O)C2)cc1 (configuration not stated),–,inactive: -11.8%
Cc1ccc(CNC(=O)Nc2ccccc2)cc1,"inconclusive [activator, single point]",–
O=C(Nc1ccc2c(c1)OCO2)C1CC(c2ccc(Cl)cc2)=NO1 (configuration not stated),–,inactive: 2.81%
COc1cc2c(cc1OC)CN(c1ccc(C(N)=O)cc1[N+](=O)[O-])CC2,"inconclusive [activator, single point]",–
CCOc1cc(NC(=O)CCl)c(OCC)cc1NC(=O)CCl,active: 6.51 µM,–
CCOC(=O)C(=CNc1nc(-c2ccc3ccccc3c2)cs1)C(=O)OCC,"inconclusive [activator, single point]",–
O=C(c1ccc(-c2ccccc2Cl)o1)N1CCN(S(=O)(=O)c2cccs2)CC1,"inconclusive [activator, partial curve]",–
CC(=O)N1N=C(c2ccc(C)cc2)OC1c1ccc(Br)cc1 (configuration not stated),"inconclusive [activator, single point]",–
O=C(Cc1ccc([N+](=O)[O-])cc1)N1CCc2ccccc2C1,"inconclusive [activator, single point]",–
Cc1cccc(CCNC(=O)c2cc(S(=O)(=O)N3CCCCC3)c[nH]2)c1,–,inactive: 0.92%
Oc1ccc(/C=N/Nc2nc(-c3ccc(Cl)cc3)cc(C(F)(F)F)n2)cc1,"inconclusive [activator, partial curve, poor fit]",–
Cc1ccc2[nH]c(=O)c(C3C(C#N)=C(N)Oc4c3ccc3cccnc43)cc2c1 (configuration not stated),"inconclusive [activator, single point]",–
O=C(COc1ccc2ccccc2c1CN1CCOCC1)N1CCc2ccccc21,–,inactive: 12.3%
CCCC(c1nnnn1C(C)(C)CC)N(Cc1ccco1)Cc1cc2ccc(OC)cc2[nH]c1=O (configuration not stated),"inconclusive [activator, partial curve, poor fit]",–
O=C1CC(=C(c2ccccc2)c2ccccc2)C(=O)N1CCN1CCN(c2cccc(Cl)c2)CC1,"inconclusive [activator, full curve]",–
O=C(NNC(=S)Nc1ccccc1Cl)c1ccncc1,–,inactive: 0%
CC(C)CC(=O)/C(=C/c1ccc(N(C)C)cc1)n1cncn1,–,inactive: -0.903%
O=[N+]([O-])c1cc(/C=N\Nc2ccccn2)ccc1Cl,"inconclusive [activator, single point]",–
Cc1cccc2sc(N(CCCN(C)C)C(=O)CCc3ccccc3)nc12,"inconclusive [activator, single point]",–

Compound,Potency,"activity, positive = re-replication"
Cc1ccccc1Cn1c(-c2cncs2)nc2ccccc21,"inconclusive [activator, partial curve]",–
O=C1/C(=C/c2cccc(Br)c2)SC(=S)N1CCC(=O)N(CCO)c1ccccc1,"inconclusive [activator, single point]",–
COc1ccc2cc(-c3ccn[nH]3)ccc2c1,–,inactive: 12.7%
S=C(NCC1CCCO1)c1ccc(Br)cc1 (configuration not stated),"inconclusive [activator, single point]",–
Cc1nn(-c2ccccc2)c(C)c1/C=N/NC(=O)CSc1nc2ccccc2c(=O)n1-c1ccccc1,"inconclusive [activator, single point]",–
Oc1cc(NCc2ccc(F)cc2)cc2cccnc12,"inconclusive [activator, single point]",–
Cc1[nH]c2ccc(C(=O)O)cc2c1C,active: 23.1 µM,–
COc1cc(NC(=O)c2ccc(NC3=NC4CS(=O)(=O)CC4S3)cc2)cc(OC)c1OC (configuration not stated),–,inactive: -10.1%
Brc1ccc(CSc2nccn2-c2ccccc2)cc1,"inconclusive [activator, single point]",–
Cc1cc(C)cc(NC(=O)Nc2ccc(N3CCCCC3)cc2)c1,"inconclusive [activator, single point]",–
O=C(Nc1sc2c(c1C(=O)NCC1CCCO1)CCCC2)c1cccs1 (configuration not stated),"inconclusive [activator, partial curve, poor fit]",–
CCCCCCSc1ccc(-c2nc3ccc(Cl)cn3c2NC2CCCCC2)cc1,"inconclusive [activator, partial curve, poor fit]",–
CC(C)C(NC(=O)c1c(F)cccc1F)C(=O)NCC(c1ccccc1)N(C)C (configuration not stated),"inconclusive [activator, partial curve, poor fit]",–
NC(=O)CSc1nnc(Cc2ccc3c(c2)OCO3)o1,–,inactive: 6.47%
CCC(CC)C1C(C#N)=C(N)Oc2n[nH]c(C)c21 (configuration not stated),"inconclusive [activator, single point]",–
CC(C)n1ncc2c(C(=O)Nc3cccc(S(=O)(=O)N(C)C)c3)cc(C3CC3)nc21,"inconclusive [activator, single point]",–
Cc1ccc(NC(=O)CN(C)C(=O)c2cn(Cc3ccccc3)nc2-c2cccnc2)cc1,–,inactive: 6.71%
CCCN(CCC)CCc1cccc2c1CC(=O)N2,"inconclusive [activator, partial curve, poor fit]",–
C1=C(c2ccco2)N2CCN=C2S1,"inconclusive [activator, single point]",–
N#Cc1ccccc1NC(=O)CSc1nnc(-c2ccc(F)cc2)n1-c1ccccc1,"inconclusive [activator, partial curve, poor fit]",–
COCCCNC(=S)NC1CC2CCCC(C1)N2Cc1cccs1 (configuration not stated),"inconclusive [activator, single point]",–
CC(=O)O[C@@H](C[C@@H](C)C1=C2C[C@H](O)C3[C@@]4(C)CCC(=O)C(C)(C)C4CC[C@]3(C)[C@@]2(C)CC1)[C@H]1OC1(C)C (some centres not stated),"inconclusive [activator, single point]",–
Cc1ccc(C(=O)N/N=C/c2nc3ccccc3n2C)cc1,–,inactive: -1.69%

Compound,Potency,"activity, positive = re-replication"
COc1ccc(N2CCN(C(CNS(C)(=O)=O)c3ccco3)CC2)cc1 (configuration not stated),"inconclusive [activator, single point]",–
O=S(=O)(Nc1cccc2c1CCCC2)c1ccc(Cl)cc1,active: 16.4 µM,–
CCOc1ccc2nc(NC(=O)/C=C/c3ccc4c(c3)OCO4)sc2c1,"inconclusive [activator, single point]",–
O=C(NCCc1ccccc1)N1c2ccccc2Sc2ccccc21,"inconclusive [activator, single point]",–
O=C(NC12CC3CC(CC(C3)C1)C2)c1cc(F)c(F)cc1Cl,"inconclusive [activator, single point]",–
Cc1ccc(C)c(-n2ccnc2SCC(=O)Nc2cccc(S(=O)(=O)NC3=NCCC3)c2)c1,–,inactive: -1.22%
Oc1ccc(/C=N/n2c(C3CCCCC3)n[nH]c2=S)c(O)c1,"inconclusive [activator, full curve, poor fit]",–
CCOC(=O)C1=CN(Cc2cccc(-c3ccc4c(c3)OCO4)c2)S(=O)(=O)N(C)C1C (configuration not stated),"inconclusive [activator, single point]",–
CCN1CCN(Cc2ccc(NC(=O)c3ccc(C)c(/C=C/c4cnc(Nc5cc(N6CCNCC6)nc(C)n5)cn4)c3)cc2C(F)(F)F)CC1,–,inconclusive: 207% [activator]
CCOC(=O)c1c(NC(=O)COC(=O)Cc2ccccc2[N+](=O)[O-])sc(C(=O)N(C)C)c1C,–,inactive: 2.21%
CCCCCCN1Cc2ccccc2C1,–,inactive: 0.507%
CCOC(=O)c1cn(Cc2ccc(C)cc2)c2cc(F)ccc2c1=O,–,inactive: 13.7%
Cc1cc(NC(=O)CCN2C(=O)/C(=C\c3ccccc3Cl)SC2=S)no1,"inconclusive [activator, single point]",–
O=C(COC(=O)/C=C/c1cn(-c2ccccc2)nc1-c1ccc2c(c1)OCCO2)NC1CCS(=O)(=O)C1 (configuration not stated),–,inactive: 0.968%
O=C(Nc1ccc(F)cc1)c1ccc(C(=O)N2CCCC(O)C2)cc1 (configuration not stated),"inconclusive [activator, partial curve, poor fit]",–
COc1ccc(/C=C2\SC(=S)N(CCC(=O)NCCc3ccc(O)cc3)C2=O)cc1,"inconclusive [activator, single point]",–
Cc1ccc2cc3c(N)c4c(C)ccc(C)c4nc3nc2c1,"inconclusive [activator, single point]",–
CC(C)(C)c1ccc(NC(=O)CC2(C(F)(F)F)OCCO2)cc1,"inconclusive [activator, single point]",–
C[C@@H]1CN([C@H](C)CO)C(=O)c2cc(NC(=O)c3ccncc3)ccc2O[C@@H]1CN(C)C(=O)Nc1ccccc1,"inconclusive [activator, single point]",–
Cc1cccc(N2CCN(C(=O)c3ccc(S(=O)(=O)N(C)c4ccccc4)cc3)CC2)c1C,active: 5.17 µM,–
Cc1ccc2oc(C(=O)N(C)CCC(O)c3ccccc3)c(C)c2c1 (configuration not stated),–,inactive: -7.11%
